Assay results from US12398123B2, “Chemical inhibition of the E3 ligase subunit FBXO7 confers neuroprotection and anti-inflammatory activity by stabilizing mitochondria” (University of Pittsburgh—Of the Commonwealth System of …, priority 2017, dated 2025).

Test system: Pink1
Assay: target validation: Pink1 levels in BEAS-2B cells with control or Fbxo7 siRNA
Conditions: control siRNA 3 days, compound 18 h

For `O=C(CCCn1c(SCC(=O)NCC2CCCO2)nc2ccccc2c1=O)NCc1ccccc1` (stereo not shown) [BC1464], the “Pink1 levels in control cells with normal levels of Fbxo7” value was “dose-dependent increase in Pink1 levels”.
